This note sets out measurements from article PMC10668032.

Some of the results follow. At the low end of the ranking the order means little.

This test has as its target SIX1 homeodomain (reference allele) (UniProt Q15475). Nature of the test: universal protein binding microarray. The settings on record: Universal all-10-mer PBM (8x60K, AMADID 030236), 300 nM GST-tagged protein, Alexa Fluor 488 anti-GST; buffer, salt, pH and temperature not stated; high values mean tight binding; most listed sequences are background and not binding sites; double strand, one strand shown.
In the case of CGGAGCAC, the binding signal was -0.0464 E-score.

As to AATTTATG, the binding signal is -0.19 E-score.

Consider ACCATCCA, for which the binding signal worked out at 0.00929 E-score.

On to ACCGCATC, for which the binding signal worked out at 0.186 E-score.

On to CAGCTGAG, for which the binding signal was 0.0188 E-score.

Regarding AGTAGAGA, the binding signal was -0.000225 E-score.

Consider TGGGCAAA, for which the binding signal was -0.143 E-score.

Consider CGTTTAGC, for which the binding signal was found to be 0.0552 E-score.

For CCACCCAC, the binding signal turned out to be 0.0493 E-score.

On to GATAACAC, for which the binding signal turned out to be 0.082 E-score.

CTTCGTGA: the binding signal was -0.00241 E-score.

For TACCAAAA, the binding signal came out at 0.0673 E-score.

As to AAGTCTTC, the binding signal was -0.247 E-score.

Consider AGATGACG, for which the binding signal stood at 0.0859 E-score.

On to GGCAATAC, for which the binding signal stood at 0.181 E-score.

TCTGCACA: the binding signal was -0.0704 E-score.

AATGGCCA: the binding signal is -0.281 E-score.

For the sequence CACTGTTC, the binding signal was -0.31 E-score.

On to CACATCGC, for which the binding signal is -0.081 E-score.

Consider ATGGGACA, for which the binding signal came to 0.0554 E-score.

As to GCGCCAAC, the binding signal was -0.273 E-score.

With AATCCATA, the binding signal was determined as 0.214 E-score.

In the case of CATTACCC, the binding signal is -0.117 E-score.

As for ATATTTGG, the binding signal is 0.0981 E-score.

For the sequence ACCCCCGC, the binding signal was determined as 0.135 E-score.

Consider CCTACCTC, for which the binding signal is -0.108 E-score.

As to GAAGGAGA, the binding signal was determined as 0.121 E-score.

Regarding ATCGAGAC, the binding signal was found to be 0.217 E-score.

GAGGCGCC: the binding signal is -0.127 E-score.

On to CTAGAAAG, for which the binding signal is -0.132 E-score.

For the sequence AGACGCGA, the binding signal came to 0.0346 E-score.

On to CGGTTTGC, for which the binding signal was -0.183 E-score.

Take TCCGCTAA: the binding signal turned out to be 0.0211 E-score.

Regarding AAACTTGA, the binding signal was -0.0777 E-score.

For the sequence ACCTCCTC, the binding signal was -0.08 E-score.

On to CCCGCTAC, for which the binding signal was found to be 0.00854 E-score.

ACAAATGA: the binding signal is -0.204 E-score.

For CACCGCGC, the binding signal was determined as 0.106 E-score.

Regarding GACGTGTA, the binding signal amounted to 0.107 E-score.

For the sequence ATTGAGAG, the binding signal was 0.0988 E-score.

For the sequence AATGCTGC, the binding signal is -0.292 E-score.

AATAACAG: the binding signal was -0.17 E-score.

ATGTCCTG: the binding signal was -0.199 E-score.

Regarding ATAAACGC, the binding signal was -0.0335 E-score.

GCTTATCC: the binding signal worked out at 0.304 E-score.

On to GCGTATGA, for which the binding signal came to 0.081 E-score.

On to GGAGGCAA, for which the binding signal stood at 0.045 E-score.

For the sequence GCATGCCA, the binding signal was -0.0427 E-score.

Take CAATAAAC: the binding signal is -0.176 E-score.

As for GTGACTTA, the binding signal is -0.227 E-score.

With AATCAGGC, the binding signal is -0.0947 E-score.

In the case of CAATGGTC, the binding signal is -0.0567 E-score.

Turning to CTCTACGA, the binding signal amounted to 0.0161 E-score.

Take CGTGTCGC: the binding signal was 0.128 E-score.

Regarding CAGTATCA, the binding signal came to 0.465 E-score.

As for ACCGTAAG, the binding signal was -0.0762 E-score.

Turning to GGCGATAC, the binding signal amounted to 0.444 E-score.

Take ATGAAGAG: the binding signal is -0.035 E-score.

As to GGACTTCA, the binding signal is -0.029 E-score.

With TGAATGAA, the binding signal is -0.0556 E-score.

On to CATAGTAG, for which the binding signal stood at 0.0964 E-score.

Consider ACATCCCT, for which the binding signal was 0.0532 E-score.

On to GCGCTATA, for which the binding signal was determined as 0.0517 E-score.

As to GTTGAAAC, the binding signal is -0.0597 E-score.

In the case of TGAGTCCA, the binding signal is -0.154 E-score.

As for AGAGCGCC, the binding signal was -0.233 E-score.

For AGCTCTGG, the binding signal was -0.173 E-score.

Consider CGGCCCTC, for which the binding signal was determined as 0.0553 E-score.

With ATGGGGCC, the binding signal is -0.249 E-score.

Regarding AGTTGACA, the binding signal was -0.0934 E-score.

In the case of ATACTTGA, the binding signal was found to be 0.222 E-score.

For the sequence AAACGACG, the binding signal was -0.219 E-score.

With AAACCCGC, the binding signal is -0.00726 E-score.

Take ATTGGCAC: the binding signal stood at 0.118 E-score.

Regarding TATACTGA, the binding signal amounted to 0.239 E-score.

Take ACGTGAGA: the binding signal was determined as 0.0501 E-score.

In the case of ATGTTGGC, the binding signal was -0.198 E-score.

Turning to ACAACAAG, the binding signal is -0.159 E-score.

As for TAAAGCGA, the binding signal is 0.0724 E-score.

Turning to CTCTCAGA, the binding signal was -0.19 E-score.

Regarding ATGTGCTA, the binding signal was -0.133 E-score.

In the case of CGGAACAG, the binding signal is -0.163 E-score.

Turning to AGATAATC, the binding signal came to 0.143 E-score.

Consider AACATCGT, for which the binding signal is -0.0978 E-score.

In the case of CTAACAGC, the binding signal was -0.122 E-score.

For the sequence GCTAAATA, the binding signal turned out to be 0.00109 E-score.

As for CGGCTACA, the binding signal is -0.023 E-score.

Consider CCAGCTAC, for which the binding signal was -0.0267 E-score.

Take CATCTACA: the binding signal was determined as 0.12 E-score.

On to GTTTCACA, for which the binding signal is -0.101 E-score.

Consider AGGAATAG, for which the binding signal was -0.0926 E-score.

In the case of CGAAACCG, the binding signal worked out at 0.0879 E-score.

For AAGTAAGT, the binding signal is -0.28 E-score.

On to GTGGACGA, for which the binding signal is -0.248 E-score.

As for AACCGGAT, the binding signal stood at 0.316 E-score.

For the sequence AAGGACTG, the binding signal was -0.244 E-score.

For the sequence ATCCGGTG, the binding signal was found to be 0.405 E-score.

As to GTGTCCGA, the binding signal is 0.217 E-score.

Regarding AAGGGGTC, the binding signal was -0.0918 E-score.

Turning to ATCCCGAC, the binding signal came to 0.238 E-score.

In the case of CTAGGGGA, the binding signal is 0.0877 E-score.

Take GATGGCTA: the binding signal is 0.114 E-score.

Take GCCCCTCA: the binding signal is -0.108 E-score.

On to AGAGAACA, for which the binding signal is -0.0918 E-score.

As to GTTCGTTA, the binding signal was -0.0719 E-score.

With CGCATGCC, the binding signal was -0.126 E-score.

As for ACGATCGT, the binding signal came out at 0.154 E-score.

Regarding ACCCTATC, the binding signal was 0.346 E-score.

Regarding GACTCATC, the binding signal was -0.162 E-score.

As to CGTGAGCA, the binding signal is -0.117 E-score.

As to CATTACGC, the binding signal is -0.144 E-score.

Take CGTAGGAA: the binding signal is -0.0608 E-score.

As to ACTGACGA, the binding signal was -0.108 E-score.

Regarding GTGGCGTA, the binding signal was 0.0738 E-score.

For ACTATGGA, the binding signal was -0.0209 E-score.

For the sequence CAACAGGG, the binding signal was -0.0556 E-score.

As for GAGCCGGA, the binding signal amounted to 0.166 E-score.

As for GGCGGCAC, the binding signal was -0.143 E-score.

For the sequence TATCTACA, the binding signal worked out at 0.167 E-score.

Take CCGGCGGC: the binding signal was -0.142 E-score.

With CATCACCG, the binding signal stood at 0.000455 E-score.

For GGTTTTTA, the binding signal is -0.122 E-score.

On to CATGGGGA, for which the binding signal is 0.0843 E-score.

In the case of GACTAGCC, the binding signal is -0.193 E-score.

As for GCGCAGCA, the binding signal is -0.317 E-score.

With CGCTTAAG, the binding signal is -0.00293 E-score.

As to ACAAGCGT, the binding signal is -0.00636 E-score.

In the case of TCGCGCAA, the binding signal is -0.0849 E-score.

As for AGCCTATC, the binding signal was found to be 0.192 E-score.

As to CTATAACC, the binding signal is 0.0761 E-score.

CCAGCACA: the binding signal is -0.123 E-score.

Consider GAATGGGA, for which the binding signal was -0.0835 E-score.

Regarding ACAGATTA, the binding signal was determined as 0.0542 E-score.

Consider AATACAAC, for which the binding signal worked out at 0.0249 E-score.

For the sequence CCTGCGGC, the binding signal was 0.078 E-score.

For the sequence CAAAACCA, the binding signal came to 0.0298 E-score.

As to ACAGATGC, the binding signal was -0.184 E-score.

Regarding GATAACAA, the binding signal stood at 0.0842 E-score.

In the case of ATGTAACG, the binding signal was found to be 0.0966 E-score.

For the sequence GAGTTATC, the binding signal is 0.248 E-score.

As to ATTTAAAC, the binding signal was 0.0992 E-score.

In the case of CGCAAAGA, the binding signal was -0.18 E-score.

On to AGAGGGCG, for which the binding signal is -0.123 E-score.

Take CGGTGGTA: the binding signal was 0.11 E-score.

Consider ACAGCTCT, for which the binding signal is -0.231 E-score.

Regarding ATAAAAGA, the binding signal amounted to 0.0264 E-score.

For the sequence ATAACCAA, the binding signal is -0.214 E-score.

For the sequence CAATGGAC, the binding signal was -0.259 E-score.

As for GGGTTTAA, the binding signal turned out to be 0.0886 E-score.

As for CTCTTCGC, the binding signal was -0.142 E-score.

Consider AAGTTAAC, for which the binding signal was -0.131 E-score.

Consider AGACGTTA, for which the binding signal was -0.102 E-score.

With CGTAACAG, the binding signal was -0.146 E-score.

With GGTAAGCA, the binding signal was -0.155 E-score.

On to ACTCGAGT, for which the binding signal was -0.191 E-score.

Turning to AGAATCCT, the binding signal was -0.142 E-score.

For GCCACGAA, the binding signal is -0.268 E-score.

Turning to CAAGACAG, the binding signal is -0.109 E-score.

In the case of CGGTTGAA, the binding signal was 0.046 E-score.

On to AAACAGGA, for which the binding signal is -0.0702 E-score.

Regarding CCTCTGGC, the binding signal was -0.158 E-score.

Turning to AAAGAGAG, the binding signal was -0.324 E-score.

For CTTCTATA, the binding signal turned out to be 0.0648 E-score.

Turning to TAACGAAA, the binding signal was -0.095 E-score.

For GGCCTGTA, the binding signal is -0.163 E-score.

Turning to CTTACCCA, the binding signal was -0.0884 E-score.

Regarding TCTTATCA, the binding signal was -0.0217 E-score.

For the sequence TGCGCAAA, the binding signal is -0.233 E-score.

Regarding AGGTTACT, the binding signal turned out to be 0.111 E-score.

Take AAGCACGG: the binding signal is -0.146 E-score.

Take CAGACATA: the binding signal is 0.0948 E-score.

Turning to GGCGAGCC, the binding signal is -0.0846 E-score.
